# According to PubChem BioAssay AID686979 (National Center for Advancing Translational Sciences (NCATS), 2013):
# The whole screen tested about 420,000 compounds, of which about 50,000 (12%) were called active. Inconclusive results, whose numbers are uncertain, are shown with a selection of clear calls. The call rests on the fitted dose curve; in most records, active means well fitted inhibition curve with a large enough effect; inconclusive means small, poorly fitted or top-dose-only effect; inactive means flat fitted curve, though single readings scatter. No potency is given beside an inconclusive call; the fits are too rough.
# Assay: qHTS for Inhibitors of human tyrosyl-DNA phosphodiesterase 1 (TDP1): qHTS in cells in presence of CPT; further: nearly all actives have a fitted effect of over 55% in size
# Settings: chicken DT40 Tdp1-/-;hTDP1 cells + 20 nM CPT, ATP luminescence, 48 h; activity change, negative = growth inhibition: at 46.2 µM (top of the series)
# Outline: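 Cell growth measured by CellTiter-Glo luminescence after a minimum 48 h, 37 C compound exposure with 20 nM CPT in Tdp1-knockout DT40 cells stably expressing hTDP1, seeded 400/well; qHTS titration format.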
# On the % scale 0 is the no-effect control and ±100 the full control effect; potency means the concentration at half of the fitted maximal effect; tags describe the fitted curve by direction and shape.
Structure (SMILES),Potency,"activity change, negative = growth inhibition"
COc1ccc(COc2ccc3c(C)cc(=O)oc3c2)cc1,"inconclusive [inhibitor, single point]",
CC(=O)c1ccc(NC(=O)C2CCCN2S(=O)(=O)c2cccs2)cc1 (stereo unspecified),"inconclusive [inhibitor, partial curve]",
CN(Cc1ccc(Cl)s1)C(=O)CN1C(=O)N(C)C2(CCCCC2)C1=O,"inconclusive [inhibitor, single point]",
Cc1ccc(NC2=C(Cl)C(=O)OC2OC(C)C)c(C)c1 (stereo unspecified),"inconclusive [inhibitor, single point]",
N#Cc1ccc(-n2c(-c3ccccc3)nnc2-c2ccccc2)cc1C#N,"inconclusive [inhibitor, single point]",
COc1ccc(NS(=O)(=O)c2ccc(N3CCOCC3)c(N)c2)cc1,active: 2.59 µM,
COc1ccc(C(O)c2nc(-c3cc4ccccc4o3)cs2)cc1 (stereo unspecified),"inconclusive [inhibitor, single point]",
CCOc1ccccc1-n1nnnc1SCC(=O)Nc1cc2oc3ccccc3c2cc1OC,"inconclusive [inhibitor, partial curve]",
O=C(COC(=O)/C=C/c1ccc(F)cc1)NC(=O)NCc1ccccc1,,inactive: 2.8%
COc1ccc(Nc2nc(-c3ccccc3)nc3ccccc23)cc1S(=O)(=O)N1CCOCC1,active: 14.6 µM,
CCOC(=O)c1nc2sc(C)c(C)c2c(=O)[nH]1,,inactive: -14.6%
C/C(=N\Nc1ccc([N+](=O)[O-])cc1)c1ccc(-n2nncc2C)cc1,"inconclusive [inhibitor, single point]",
COc1cc(F)ccc1-c1cc(C(=O)NCc2cccc(Cl)c2)[nH]n1,"inconclusive [inhibitor, single point]",
O=C(Cn1c(=O)oc2cc(S(=O)(=O)N3CCCC3)ccc21)Nc1ccccc1Br,,inconclusive: -31.7% [inhibitor]
O=C(NCCCN1CCN(c2ccccc2)CC1)c1sc2ncccc2c1-n1cccc1,"inconclusive [inhibitor, single point]",
COc1ccc(-c2nn(-c3ccccc3)cc2/C=N/n2cnnc2)cc1OC,,inactive: -1.75%
CCCCNCCS(=O)(=O)NCc1ccc(OC)cc1,,inactive: -1.75%
Cc1ccc(OC(C)C(=O)Nc2ccncc2)cc1C (stereo unspecified),"inconclusive [inhibitor, partial curve]",
O=C(Nc1cc(-c2ccccc2)nn1C1CCCCC1)c1ccc(Cl)cc1,"inconclusive [inhibitor, single point]",
CC(C)(C)OC(=O)NCCCC[C@H](NC(=O)c1nc[nH]c1C(=O)NCC(=O)OCc1ccccc1)C(=O)OC(C)(C)C,active: 14.6 µM,
COc1ncnc2c1ncn2CCCN[C@H](C)c1cccc2ccccc12,,inactive: 0.809%
COC(=O)[C@@]1(Cc2ccc(F)cc2)[C@H]2c3cc(C(=O)N(C)C)n(C[C@H](O)CO)c3C[C@H]2CN1C(=O)c1ccccc1,,inactive: -5.84%
COc1cccc(CNC(=O)Cc2nc3nc(C)cc(C)n3n2)c1,,inactive: 23.8%
COc1cc(S(=O)(=O)NCCc2c(C)[nH]c3ccc(C)cc23)ccc1Br,"inconclusive [inhibitor, single point]",

Structure (SMILES),Potency,"activity change, negative = growth inhibition"
O=C(NCc1ccccc1)C(c1ccccc1)N(Cc1cccs1)C(=O)c1cnccn1 (stereo unspecified),"inconclusive [inhibitor, partial curve, poor fit]",
CCOCC(O)CNc1ccccc1 (stereo unspecified),,inactive: 0.996%
CCOC(=O)c1c(NC(=O)COC(=O)c2nccnc2N)sc2c1CCC2,"inconclusive [inhibitor, partial curve]",
CCCn1c(C2CCCN2c2nc(-c3ccc(C)cc3)cs2)nc2cc(Cl)c(N3CCCCC3)cc21 (stereo unspecified),"inconclusive [inhibitor, single point]",
COC(=O)N/N=C/c1cn(Cc2ccc(F)cc2)c2ccccc12,,inactive: -28.5%
O=[N+]([O-])c1ccccc1CNc1ccc(F)c(Cl)c1,,inactive: -21.2%
CCCOc1ccc2c(=O)c(-c3cc(C(=O)OC)oc3C)c(C)oc2c1,active: 13 µM,
COc1ccc(N(C(=O)c2ccccc2C)S(=O)(=O)c2ccc(Cl)cc2)cc1,"inconclusive [inhibitor, single point]",
Cc1ccc(NC(=O)CCc2nnc3ccc(N4CCC(C)CC4)nn23)nc1,,inactive: -24%
O=C(NCCc1nc2ccccc2n1Cc1ccccc1F)c1ccc(F)cc1,"inconclusive [inhibitor, single point]",
O=C(CSc1cccc2cccc(Cl)c12)NCc1cccs1,"inconclusive [inhibitor, partial curve]",
Cc1cccc(NC(=O)c2ccc(F)c(S(=O)(=O)NCc3ccco3)c2)c1,"inconclusive [inhibitor, single point]",
CCCCCc1cc(=O)oc2c(C(CCN(CC)CC)c3ccc(OC)cc3)c(OC)cc(OC)c12 (stereo unspecified),active: 14.6 µM,
O=C(Nc1cccc(C(=O)N2CCN(c3ccc(F)cc3)CC2)c1)c1ccccc1,"inconclusive [inhibitor, single point]",
COc1c2c(cc3oc(=O)c4c5ccc(O)cc5oc4c13)OC(C)(C)CC2,active: 16.4 µM,
CCOc1ccc(/C=N/N2C(=O)C(CC(=O)Nc3ccc(F)cc3F)SC2=NC)cc1OC (stereo unspecified),"inconclusive [inhibitor, single point]",
C=C(C)CC(c1ccccc1)N(C(C)=O)c1ccco1 (stereo unspecified),,inactive: 2.36%
Cc1ccc(/C=C2\SC(=S)N(CCC(=O)Nc3ccc(O)cc3)C2=O)cc1,,inactive: 12%
COc1ccc(C)cc1NC(=O)CSc1nnc(-c2cc3cccc(OC)c3o2)n1N,"inconclusive [inhibitor, single point]",
CN1C(C(=O)Nc2cccc(O)c2)=CC(c2cccs2)=NS1(=O)=O,"inconclusive [inhibitor, single point]",
c1csc(-c2nc(N3CCN(Cc4ccc5c(c4)OCCO5)CC3)c3ccccc3n2)c1,"inconclusive [inhibitor, single point]",
COc1ccc(C(=O)c2cn(Cc3ccccc3)c3ccccc3c2=O)cc1OC,active: 20.6 µM,
O=C1c2ccccc2C(Nc2ccc3nc(-c4cccnc4)[nH]c3c2)N1Cc1ccco1 (stereo unspecified),active: 9.2 µM,
O=C(Nc1cc(Cl)cc(Cl)c1)c1cc(S(=O)(=O)NC2CCCC2)ccc1F,"inconclusive [inhibitor, single point]",

Structure (SMILES),Potency,"activity change, negative = growth inhibition"
O=C(O)c1ccccc1-c1nc2ccccc2[nH]1,,inactive: -1.12%
O=[N+]([O-])c1ccc(COc2ccccc2CN2CCCCC2)cc1,"inconclusive [inhibitor, single point]",
Clc1cccc(CNc2nc(-c3cccnc3)nc3ccccc23)c1,"inconclusive [inhibitor, single point]",
O=C(N/N=C/c1ccc2c(c1)OCO2)c1ccc(COc2cccc3cccnc23)cc1,"inconclusive [inhibitor, single point]",
CCCC1=NN(C(=O)CCc2ccccc2O)C(O)(C(F)(F)F)C1 (stereo unspecified),,inactive: -16.5%
COc1ccc(Oc2ncc3ncc(=O)n(C)c3n2)cc1,,inactive: -3.76%
O=[N+]([O-])C(/C=C(\Cl)[N+](=O)[O-])=C1N(Cc2ccc(Cl)nc2)CCN1Cc1ccc(Cl)nc1,"inconclusive [inhibitor, single point]",
COc1cc2c(cc1OC)C(c1cc3ccccc3oc1=O)=NC(C)(C)C2,"inconclusive [inhibitor, single point]",
CCOc1ccc(-c2cnc3n2CCCCC3)cc1,"inconclusive [inhibitor, single point]",
O=C(Nc1ccc(F)cc1F)NC1CCCCCCC1,"inconclusive [inhibitor, single point]",
CC(C)Oc1ccc(CN2CCCC(CO)(Cc3ccccc3)C2)cc1CO (stereo unspecified),active: 29.1 µM,
Cc1c(Cl)cccc1NC(=O)CCS(=O)(=O)c1ccc2c(c1)CC(C)N2C(=O)C1CC1 (stereo unspecified),active: 5.17 µM,
N/N=C(/Cc1nc2ccccc2[nH]1)c1ccc([N+](=O)[O-])cc1,active: 25.9 µM,
CCCC(=O)Nc1sc(Cc2ccccc2)c(C)c1C(N)=O,"inconclusive [inhibitor, partial curve]",
COc1cc(NC(=O)C2CCN(S(=O)(=O)c3ccc4[nH]c(=O)oc4c3)CC2)cc(OC)c1,,inactive: -0.757%
COc1ccc(S(=O)(=O)NC(N)=NCCc2ccccc2)cc1,"inconclusive [inhibitor, single point]",
CN(C)Cc1ccccc1-c1ccc2ncnc(NCc3cccs3)c2c1,"inconclusive [inhibitor, single point]",
Cc1cccc(N2CCN(C(=O)C3CCN(C(=O)c4cc5sccc5n4C)CC3)CC2C)c1 (stereo unspecified),active: 13 µM,
COc1ccc(-c2cc(C(F)(F)F)nc(N3CCCCC3)n2)cc1OC,"inconclusive [inhibitor, single point]",
CCOc1ccccc1CNCc1c(C(=O)O)c(C)n(Cc2ccc(C)cc2)c1C,"inconclusive [inhibitor, single point]",
CN1CCc2nc3sc(C(=O)c4ccc(F)cc4)c(N)c3cc2C1,"inconclusive [inhibitor, single point]",
COc1cc(OC)cc(-c2nnc(Nc3nc4c(F)cccc4s3)o2)c1,active: 20.6 µM,
C=CCC[C@@H](Cc1ccc(F)cc1)C(=O)OC[C@@H](C)NC(=O)[C@H](CC=C)CC(=O)N(CCO)Cc1ccccc1,active: 13 µM,
